Experimental data published in the supplement of paper PMC9151546.
Many values rest on one well or one pass, so single values are uncertain.

Tests used:
CHO-K1 [1] = experiment: micronucleus frequency (% of nucleated events); higher = more micronuclei (genotoxic)
CHO-K1 [2] = experiment: hypodiploid nuclei frequency (% of nucleated events); higher = more hypodiploid events (aneugenic)
CHO-K1 [3] = experiment: relative survival (nuclei to bead ratio vs DMSO control) (% of vehicle control); higher = more surviving cells
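For hypodiploid nuclei frequency (% of nucleated events) in this document: hypodiploid nuclei gated on a flow cytometer with 488 nm excitation after SYTOX Green staining, cultures at 37 °C, positive controls vinblastine without S9 and cyclophosphamide with S9.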
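For micronucleus frequency (% of nucleated events) in this document: cells lysed with nuclei stained by SYTOX Green, then micronucleus-gated events counted against nucleated events by flow cytometry with 488 nm excitation.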
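For relative survival (nuclei to bead ratio vs DMSO control) in this document: Lysed-cell nuclei stained with SYTOX Green and counted against counting beads by flow cytometry at 488 nm excitation, with vinblastine (no S9) and cyclophosphamide (plus S9) as positive controls.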

CN(C)c1ccc(C(=O)c2ccc(N(C)C)cc2)cc1 [Michler's ketone]
Details | hypodiploid nuclei frequency, CHO-K1 [2] [%] | micronucleus frequency, CHO-K1 [1] [%] | relative survival, CHO-K1 [3]
concentration: 4.5 (µM), S9 metabolic activation: with S9, exposure time: 3-4 hours | 0.22 | 0.96 | 90.1
concentration: 4.5 (µM), S9 metabolic activation: without S9, exposure time: 24 hours | – | – | 24.9
concentration: 5.63 (µM), S9 metabolic activation: with S9, exposure time: 3-4 hours | 0.18 | 1.1 | 121
concentration: 5.63 (µM), S9 metabolic activation: without S9, exposure time: 24 hours | – | – | 13.3
concentration: 7.04 (µM), S9 metabolic activation: with S9, exposure time: 3-4 hours | 0.28 | 1.22 | 102
concentration: 8.8 (µM), S9 metabolic activation: with S9, exposure time: 3-4 hours | 0.22 | 1.34 | 131
concentration: 11 (µM), S9 metabolic activation: with S9, exposure time: 3-4 hours | 0.18 | 1.36 | 108
concentration: 11 (µM), S9 metabolic activation: without S9, exposure time: 24 hours | – | – | 8.55
concentration: 13.7 (µM), S9 metabolic activation: with S9, exposure time: 3-4 hours | 0.26 | 1.86 | 109
concentration: 13.7 (µM), S9 metabolic activation: without S9, exposure time: 24 hours | – | – | 13.8
concentration: 17.2 (µM), S9 metabolic activation: with S9, exposure time: 3-4 hours | 0.24 | 1.52 | 99.9
concentration: 17.2 (µM), S9 metabolic activation: without S9, exposure time: 24 hours | – | – | 9.24
concentration: 21.5 (µM), S9 metabolic activation: with S9, exposure time: 3-4 hours | 0.3 | 1.58 | 123
concentration: 21.5 (µM), S9 metabolic activation: without S9, exposure time: 24 hours | – | – | 7.59
concentration: 26.8 (µM), S9 metabolic activation: with S9, exposure time: 3-4 hours | 0.3 | 0.94 | 175
concentration: 26.8 (µM), S9 metabolic activation: without S9, exposure time: 24 hours | – | – | 9.22
concentration: 33.6 (µM), S9 metabolic activation: with S9, exposure time: 3-4 hours | 0.46 | 1.28 | 138
concentration: 33.6 (µM), S9 metabolic activation: without S9, exposure time: 24 hours | – | – | 10.1
concentration: 41.9 (µM), S9 metabolic activation: with S9, exposure time: 3-4 hours | 1.24 | 1.98 | 81.9
concentration: 41.9 (µM), S9 metabolic activation: without S9, exposure time: 24 hours | – | – | 18.2
concentration: 52.4 (µM), S9 metabolic activation: with S9, exposure time: 3-4 hours | 7.41 | 6.98 | 62.4
concentration: 52.4 (µM), S9 metabolic activation: without S9, exposure time: 24 hours | – | – | 17.7
concentration: 65.5 (µM), S9 metabolic activation: with S9, exposure time: 3-4 hours | 19.2 | 16.3 | 45.2
concentration: 65.5 (µM), S9 metabolic activation: without S9, exposure time: 24 hours | – | – | 15.7
concentration: 81.9 (µM), S9 metabolic activation: with S9, exposure time: 3-4 hours | 27.4 | 30.1 | 44.4
concentration: 81.9 (µM), S9 metabolic activation: without S9, exposure time: 24 hours | – | – | 18.4
concentration: 102 (µM), S9 metabolic activation: with S9, exposure time: 3-4 hours | 20.5 | 22.9 | 42.5
concentration: 102 (µM), S9 metabolic activation: without S9, exposure time: 24 hours | – | – | 25.4
concentration: 128 (µM), S9 metabolic activation: with S9, exposure time: 3-4 hours | – | – | 39.8
concentration: 128 (µM), S9 metabolic activation: without S9, exposure time: 24 hours | – | – | 25.4
concentration: 160 (µM), S9 metabolic activation: with S9, exposure time: 3-4 hours | – | – | 39.8
concentration: 160 (µM), S9 metabolic activation: without S9, exposure time: 24 hours | – | – | 22.6
concentration: 200 (µM), S9 metabolic activation: with S9, exposure time: 3-4 hours | – | – | 28.3
concentration: 200 (µM), S9 metabolic activation: without S9, exposure time: 24 hours | – | – | 18.7

CN(C)c1ccccc1 [N,N-Dimethylaniline]
Details | hypodiploid nuclei frequency, CHO-K1 [2] [%] | micronucleus frequency, CHO-K1 [1] [%] | relative survival, CHO-K1 [3]
concentration: 4.46 (µM), S9 metabolic activation: with S9, exposure time: 3-4 hours | 0.14 | 1.54 | 168
concentration: 4.46 (µM), S9 metabolic activation: without S9, exposure time: 24 hours | 0.7 | 2.32 | 113
concentration: 5.57 (µM), S9 metabolic activation: with S9, exposure time: 3-4 hours | 0.42 | 1.34 | 117
concentration: 5.57 (µM), S9 metabolic activation: without S9, exposure time: 24 hours | 0.62 | 2.24 | 97
concentration: 6.97 (µM), S9 metabolic activation: with S9, exposure time: 3-4 hours | 0.16 | 1.06 | 143
concentration: 6.97 (µM), S9 metabolic activation: without S9, exposure time: 24 hours | 0.5 | 1.42 | 110
concentration: 8.71 (µM), S9 metabolic activation: with S9, exposure time: 3-4 hours | 0.18 | 1.06 | 140
concentration: 8.71 (µM), S9 metabolic activation: without S9, exposure time: 24 hours | 0.52 | 1.84 | 97.8
concentration: 10.9 (µM), S9 metabolic activation: with S9, exposure time: 3-4 hours | 0.18 | 1.24 | 146
concentration: 10.9 (µM), S9 metabolic activation: without S9, exposure time: 24 hours | 0.68 | 2.32 | 95
concentration: 13.6 (µM), S9 metabolic activation: with S9, exposure time: 3-4 hours | 0.16 | 1.08 | 121
concentration: 13.6 (µM), S9 metabolic activation: without S9, exposure time: 24 hours | 0.46 | 1.88 | 95
concentration: 17 (µM), S9 metabolic activation: with S9, exposure time: 3-4 hours | 0.2 | 1.6 | 125
concentration: 17 (µM), S9 metabolic activation: without S9, exposure time: 24 hours | 0.44 | 1.28 | 117
concentration: 21.3 (µM), S9 metabolic activation: with S9, exposure time: 3-4 hours | 0.12 | 1.08 | 134
concentration: 21.3 (µM), S9 metabolic activation: without S9, exposure time: 24 hours | 0.56 | 1.54 | 103
concentration: 26.6 (µM), S9 metabolic activation: with S9, exposure time: 3-4 hours | 0.38 | 1.34 | 188
concentration: 26.6 (µM), S9 metabolic activation: without S9, exposure time: 24 hours | 0.94 | 1.3 | 87.1
concentration: 33.2 (µM), S9 metabolic activation: with S9, exposure time: 3-4 hours | 0.3 | 1.34 | 167
concentration: 33.2 (µM), S9 metabolic activation: without S9, exposure time: 24 hours | 0.58 | 1.78 | 132
concentration: 41.5 (µM), S9 metabolic activation: with S9, exposure time: 3-4 hours | 0.24 | 1.56 | 143
concentration: 41.5 (µM), S9 metabolic activation: without S9, exposure time: 24 hours | 0.8 | 1.82 | 110
concentration: 51.9 (µM), S9 metabolic activation: with S9, exposure time: 3-4 hours | 0.24 | 1.54 | 136
concentration: 51.9 (µM), S9 metabolic activation: without S9, exposure time: 24 hours | 0.92 | 1.76 | 104
concentration: 64.9 (µM), S9 metabolic activation: with S9, exposure time: 3-4 hours | 0.2 | 1.2 | 120
concentration: 64.9 (µM), S9 metabolic activation: without S9, exposure time: 24 hours | 0.98 | 2.14 | 95.8
concentration: 81.1 (µM), S9 metabolic activation: with S9, exposure time: 3-4 hours | 0.2 | 1.42 | 140
concentration: 81.1 (µM), S9 metabolic activation: without S9, exposure time: 24 hours | 1.08 | 2.66 | 102
concentration: 101 (µM), S9 metabolic activation: with S9, exposure time: 3-4 hours | 0.3 | 1.72 | 151
concentration: 101 (µM), S9 metabolic activation: without S9, exposure time: 24 hours | 0.88 | 2.18 | 91.2
concentration: 127 (µM), S9 metabolic activation: with S9, exposure time: 3-4 hours | 0.14 | 1.34 | 145
concentration: 127 (µM), S9 metabolic activation: without S9, exposure time: 24 hours | 1 | 1.9 | 99.5
concentration: 158 (µM), S9 metabolic activation: with S9, exposure time: 3-4 hours | 0.18 | 1.2 | 143
concentration: 158 (µM), S9 metabolic activation: without S9, exposure time: 24 hours | 1.22 | 2.68 | 84
concentration: 198 (µM), S9 metabolic activation: with S9, exposure time: 3-4 hours | 0.28 | 1.22 | 121
concentration: 198 (µM), S9 metabolic activation: without S9, exposure time: 24 hours | 1.44 | 2.62 | 91.2

O=NN(c1ccccc1)c1ccccc1 [N-Nitrosodiphenylamine]
Details | hypodiploid nuclei frequency, CHO-K1 [2] [%] | micronucleus frequency, CHO-K1 [1] [%] | relative survival, CHO-K1 [3]
concentration: 4.5 (µM), S9 metabolic activation: with S9, exposure time: 3-4 hours | 0.3 | 1.18 | 92
concentration: 4.5 (µM), S9 metabolic activation: without S9, exposure time: 24 hours | 0.92 | 1.52 | 90.6
concentration: 5.63 (µM), S9 metabolic activation: with S9, exposure time: 3-4 hours | 0.22 | 1.34 | 62.7
concentration: 5.63 (µM), S9 metabolic activation: without S9, exposure time: 24 hours | 1.54 | 1.16 | 118
concentration: 7.04 (µM), S9 metabolic activation: with S9, exposure time: 3-4 hours | 0.2 | 1.12 | 66
concentration: 7.04 (µM), S9 metabolic activation: without S9, exposure time: 24 hours | 0.9 | 1.44 | 90.6
concentration: 8.8 (µM), S9 metabolic activation: with S9, exposure time: 3-4 hours | 0.26 | 1.52 | 84.4
concentration: 8.8 (µM), S9 metabolic activation: without S9, exposure time: 24 hours | 0.74 | 1.36 | 93.6
concentration: 11 (µM), S9 metabolic activation: with S9, exposure time: 3-4 hours | 0.12 | 1.46 | 80.5
concentration: 11 (µM), S9 metabolic activation: without S9, exposure time: 24 hours | 0.76 | 1.2 | 83.5
concentration: 13.7 (µM), S9 metabolic activation: with S9, exposure time: 3-4 hours | 0.34 | 1.6 | 83.8
concentration: 13.7 (µM), S9 metabolic activation: without S9, exposure time: 24 hours | 0.78 | 1.28 | 82.4
concentration: 17.2 (µM), S9 metabolic activation: with S9, exposure time: 3-4 hours | 0.1 | 2.04 | 79.7
concentration: 17.2 (µM), S9 metabolic activation: without S9, exposure time: 24 hours | 1.82 | 1.02 | 89
concentration: 21.5 (µM), S9 metabolic activation: with S9, exposure time: 3-4 hours | 0.28 | 1.64 | 110
concentration: 21.5 (µM), S9 metabolic activation: without S9, exposure time: 24 hours | 0.88 | 1.12 | 88.1
concentration: 26.8 (µM), S9 metabolic activation: with S9, exposure time: 3-4 hours | 0.26 | 1.5 | 80.5
concentration: 26.8 (µM), S9 metabolic activation: without S9, exposure time: 24 hours | 1.26 | 2.16 | 101
concentration: 33.6 (µM), S9 metabolic activation: with S9, exposure time: 3-4 hours | 0.24 | 1.4 | 103
concentration: 33.6 (µM), S9 metabolic activation: without S9, exposure time: 24 hours | 3.16 | 1.48 | 86
concentration: 41.9 (µM), S9 metabolic activation: with S9, exposure time: 3-4 hours | 0.2 | 1.32 | 70.3
concentration: 41.9 (µM), S9 metabolic activation: without S9, exposure time: 24 hours | 1.24 | 1.92 | 102
concentration: 52.4 (µM), S9 metabolic activation: with S9, exposure time: 3-4 hours | 0.16 | 1.12 | 73.2
concentration: 52.4 (µM), S9 metabolic activation: without S9, exposure time: 24 hours | 1.66 | 1.68 | 99.8
concentration: 65.5 (µM), S9 metabolic activation: with S9, exposure time: 3-4 hours | 0.2 | 1.5 | 56.9
concentration: 65.5 (µM), S9 metabolic activation: without S9, exposure time: 24 hours | 1.7 | 1.64 | 80.1
concentration: 81.9 (µM), S9 metabolic activation: with S9, exposure time: 3-4 hours | 0.28 | 2.32 | 67.3
concentration: 81.9 (µM), S9 metabolic activation: without S9, exposure time: 24 hours | 1.78 | 1.54 | 91.5
concentration: 102 (µM), S9 metabolic activation: with S9, exposure time: 3-4 hours | 0.32 | 1.36 | 63.6
concentration: 102 (µM), S9 metabolic activation: without S9, exposure time: 24 hours | 1.94 | 2.1 | 83.2
concentration: 128 (µM), S9 metabolic activation: with S9, exposure time: 3-4 hours | 0.36 | 1.84 | 58.8
concentration: 128 (µM), S9 metabolic activation: without S9, exposure time: 24 hours | 3.48 | 1.86 | 73
concentration: 160 (µM), S9 metabolic activation: with S9, exposure time: 3-4 hours | 0.26 | 2.68 | 68.6
concentration: 160 (µM), S9 metabolic activation: without S9, exposure time: 24 hours | 4.26 | 2.36 | 59.5
concentration: 200 (µM), S9 metabolic activation: with S9, exposure time: 3-4 hours | 0.36 | 2.62 | 67
concentration: 200 (µM), S9 metabolic activation: without S9, exposure time: 24 hours | 4.04 | 2.64 | 74.5
